From the supplement of paper PMC4604168 (melanoma cell lines) come the findings set out here.

The list shows a part of the results. Single values are uncertain, as repeats are few or missing.
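Note: cells treated in 1,536-well plates, then fixed and DAPI-stained, with nuclei counted from automated high-throughput microscope images.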

The test system of the experiment is WM451Lu. In words: cell count relative to DMSO control; melanoma cells; higher = more viable cells. Particulars: library dose: standard library concentration; 72 h.
Compound `COc1ccc(-c2ccc3c(N4CCOCC4)nc(N4C[C@@H](C)O[C@@H](C)C4)nc3n2)cc1CO` + C/C(O)=C(\C#N)C(=O)Nc1cc(Br)ccc1Br [LFM-A13] (first compound 0.1 µM, partner dose 10 µM) yielded a cell count of 99.4%. `C=CCNC1=C2C[C@@H](C)C[C@H](OC)[C@H](O)[C@@H](C)/C=C(\C)[C@H](OC(N)=O)[C@@H](OC)/C=C\C=C(/C)C(=O)NC(=CC1=O)C2=O` [Tanespimycin] + Cc1cc(SCc2sc(-c3ccc(C(F)(F)F)c(F)c3)nc2C)ccc1OCC(=O)O [GW0742] (first compound 0.01 µM, partner dose 10 µM) gave a cell count of 115%. `C=C(c1ccc(C(=O)O)cc1)c1cc2c(cc1C)C(C)(C)CCC2(C)C` [Bexarotene] + Cc1cc(SCc2sc(-c3ccc(C(F)(F)F)c(F)c3)nc2C)ccc1OCC(=O)O [GW0742] (first compound 10 µM, partner dose 10 µM) had a cell count of 81.3%. Under `Nc1cccc2c1CN(C1CCC(=O)NC1=O)C2=O` (stereo not drawn) [lenalidomide] + Cc1cc(SCc2sc(-c3ccc(C(F)(F)F)c(F)c3)nc2C)ccc1OCC(=O)O [GW0742] (first compound 5 µM, partner dose 10 µM) stands 112%. Under `CC(C)(C)c1cnc(CSc2cnc(NC(=O)C3CCNCC3)s2)o1` + Cc1cc(SCc2sc(-c3ccc(C(F)(F)F)c(F)c3)nc2C)ccc1OCC(=O)O [GW0742] (first compound 0.05 µM, partner dose 10 µM) stands 88.5%. The compound `Cc1cc(SCc2sc(-c3ccc(C(F)(F)F)c(F)c3)nc2C)ccc1OCC(=O)O` + O=C(Oc1ccc([N+](=O)[O-])cc1)N1CCC(C(O)(c2ccc3c(c2)OCO3)c2ccc3c(c2)OCO3)CC1 [JZL184] (first compound 10 µM, partner dose 5 µM) had a cell count of 99.1%.

`CS(=O)(=O)c1ccc(C(=O)Nc2ccc(Cl)c(-c3ccccn3)c2)c(Cl)c1` [vismodegib] + C/C(O)=C(\C#N)C(=O)Nc1cc(Br)ccc1Br [LFM-A13] (first compound 5 µM, partner dose 10 µM) had a cell count of 116%.

`N#CC[C@H](C1CCCC1)n1cc(-c2ncnc3[nH]ccc23)cn1` [ruxolitinib] + Cc1cc(SCc2sc(-c3ccc(C(F)(F)F)c(F)c3)nc2C)ccc1OCC(=O)O [GW0742] (first compound 5 µM, partner dose 10 µM) yielded a cell count of 88.7%. Under `Cn1sc(=O)n(Cc2ccccc2)c1=O` + C/C(O)=C(\C#N)C(=O)Nc1cc(Br)ccc1Br [LFM-A13] (first compound 2 µM, partner dose 10 µM) stands 85.6%; under `NC(=O)c1ccc(N(C(N)=O)c2c(F)cccc2F)nc1-c1ccc(F)cc1F` + C/C(O)=C(\C#N)C(=O)Nc1cc(Br)ccc1Br [LFM-A13] (first compound 2 µM, partner dose 10 µM), 84.3%; under `C[C@@H](N)c1ccc(C(=O)Nc2ccnc3[nH]ccc23)cc1` + Cc1cc(SCc2sc(-c3ccc(C(F)(F)F)c(F)c3)nc2C)ccc1OCC(=O)O [GW0742] (first compound 2 µM, partner dose 10 µM), 109%. In the case of `O=C(O)[C@@H]1[O][Sb](=[O])([O][Sb]2(=[O])[O][C@H]([C@H](O)CO)[C@H](O)[C@H](C(=O)O)[O]2)[O][C@H]([C@H](O)CO)[C@@H]1O` (stereo partly drawn) [stibogluconate] + O=C(Oc1ccc([N+](=O)[O-])cc1)N1CCC(C(O)(c2ccc3c(c2)OCO3)c2ccc3c(c2)OCO3)CC1 [JZL184] (first compound 10 µM, partner dose 5 µM) it was 104%; in that of `Cn1c(=O)n(-c2ccc(C(C)(C)C#N)cc2)c2c3cc(-c4cnc5ccccc5c4)ccc3ncc21` + O=C(Oc1ccc([N+](=O)[O-])cc1)N1CCC(C(O)(c2ccc3c(c2)OCO3)c2ccc3c(c2)OCO3)CC1 [JZL184] (first compound 0.02 µM, partner dose 5 µM), 75.1%. In the case of `COc1ccc2c(c1)CCC1C2CCC2(C)C(NCCCCCCN3C(=O)C=CC3=O)CCC12` (stereo not drawn) + O=C(Oc1ccc([N+](=O)[O-])cc1)N1CCC(C(O)(c2ccc3c(c2)OCO3)c2ccc3c(c2)OCO3)CC1 [JZL184] (first compound 2 µM, partner dose 5 µM), the cell count came to 97.3%. On to `NC(=O)Nc1cc(-c2cccc(F)c2)sc1C(=O)N[C@H]1CCCNC1` + C/C(O)=C(\C#N)C(=O)Nc1cc(Br)ccc1Br [LFM-A13] (first compound 0.1 µM, partner dose 10 µM), for which the cell count came to 82.2%. `NCC(=O)Nc1ccc(-n2nc(C(F)(F)F)cc2-c2ccc3c(ccc4ccccc43)c2)cc1` + O=C(Oc1ccc([N+](=O)[O-])cc1)N1CCC(C(O)(c2ccc3c(c2)OCO3)c2ccc3c(c2)OCO3)CC1 [JZL184] (first compound 5 µM, partner dose 5 µM): the cell count stood at 108%.

As to `NC1(c2ccc(-c3nc4ccn5c(=O)[nH]nc5c4cc3-c3ccccc3)cc2)CCC1` + Cc1cc(SCc2sc(-c3ccc(C(F)(F)F)c(F)c3)nc2C)ccc1OCC(=O)O [GW0742] (first compound 2 µM, partner dose 10 µM), the cell count is 103%. As for `Nc1cccc2c1CN(C1CCC(=O)NC1=O)C2=O` (stereo not drawn) [lenalidomide] + O=C(Oc1ccc([N+](=O)[O-])cc1)N1CCC(C(O)(c2ccc3c(c2)OCO3)c2ccc3c(c2)OCO3)CC1 [JZL184] (first compound 5 µM, partner dose 5 µM), the cell count came to 90.2%.

For `CCN(CC)CCNC(=O)c1c(C)[nH]c(/C=C2\C(=O)Nc3ccc(F)cc32)c1C` [sunitinib] + Cc1cc(SCc2sc(-c3ccc(C(F)(F)F)c(F)c3)nc2C)ccc1OCC(=O)O [GW0742] (first compound 2 µM, partner dose 10 µM), the cell count stood at 56.8%.

As to `Cc1cc(Nc2cc(N3CCN(C)CC3)nc(/C=C/c3ccccc3)n2)n[nH]1` + Cc1cc(SCc2sc(-c3ccc(C(F)(F)F)c(F)c3)nc2C)ccc1OCC(=O)O [GW0742] (first compound 0.2 µM, partner dose 10 µM), the cell count amounted to 85.2%. `OCc1c[nH]c2ccccc12` [Indole-3-carbinol] + Cc1cc(SCc2sc(-c3ccc(C(F)(F)F)c(F)c3)nc2C)ccc1OCC(=O)O [GW0742] (first compound 4 µM, partner dose 10 µM) returned a cell count of 126%. In the case of `Cn1c(=O)n(-c2ccc(C(C)(C)C#N)cc2)c2c3cc(-c4cnc5ccccc5c4)ccc3ncc21` + C/C(O)=C(\C#N)C(=O)Nc1cc(Br)ccc1Br [LFM-A13] (first compound 0.02 µM, partner dose 10 µM) it was 82.3%; in that of `CCCCCCCCc1ccc(CCC(N)(CO)CO)cc1` [fingolimod] + Cc1cc(SCc2sc(-c3ccc(C(F)(F)F)c(F)c3)nc2C)ccc1OCC(=O)O [GW0742] (first compound 10 µM, partner dose 10 µM), 5.03%.
